The whole screen tested about 45,000 compounds, of which about 200 (0.44%) were called active. Inconclusive results (about 7%) are left out. Calls come from the whole dose curve; as a rule, active = well fitted activation curve with a large enough effect; inconclusive = small, poorly fitted or top-dose-only effect; inactive = no such curve, though single readings can be large or run the other way. The list shows a part of the results.
experiment: qHTS of TDP-43 Inhibitors: NCGC Sytravon Library Screen; conditions: yeast TDP-43 toxicity rescue, BacTiter-Glo growth, 24 h; series mostly up to 46.1 µM; growth rescue (activation): at the top concentration; note: 0% is about no effect; nearly all actives have a fitted effect of over 55% in size
In short: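 TDP-43-expressing yeast, pregrown in raffinose, seeded at OD600 0.02 in galactose medium with compound for 24 hr at 30 deg C. Growth read by BacTiter-Glo luminescence, so rescue of toxicity appears as activation.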

Compound	growth rescue (activation)
O=C(CN1CCN(c2ccc(F)cc2)CC1)Nc1nccs1	inactive: 10.1%
COc1cc2cc(CN(Cc3cccs3)C(=S)Nc3ccc(C)cc3)c(=O)[nH]c2cc1OC	inactive: -4.45%
CCCOc1ccc(NC(=O)CC2C(=O)N(C)C(=S)N2Cc2ccc3c(c2)OCO3)cc1 (stereo not given)	inactive: 18.2%
CC(O)C(NS(=O)(=O)c1ccc(Cl)cc1)C(=O)OCC(=O)c1c[nH]c2ccccc12 (stereo not given)	inactive: -4.96%
CCOC(=O)c1cc(-c2ccccc2)n(CC(=O)Nc2cc(OC)cc(OC)c2)c1C	inactive: 15.3%
Cc1ccc(F)c(S(=O)(=O)NC(=O)C2(C)CCN2C(=O)c2cccc3ccccc23)c1 (stereo not given)	inactive: -1.89%
CCC(C)(C)NC(=O)/C=C/c1ccc(OC)c(S(=O)(=O)N2CCOCC2)c1	inactive: 13.7%
Cc1ccc2c(c1)sc(C)[n+]2CCCS(=O)(=O)[O-]	inactive: -2.2%
CCOc1ccccc1N=C1SC(CC(=O)Nc2ccc(OC)cc2OC)C(=O)N1CCC1=CCCCC1 (stereo not given)	inactive: -0.119%
Fc1ccc(C2CCNCC2COc2ccc3c(c2)OCO3)cc1 (stereo not given)	inactive: -3.08%
COc1ccc(CN2C[C@@H](CO)O[C@@H](n3cnc4c(N5CCN(CCO)CC5)ncnc43)C2)cc1	inactive: -5.43%
Cc1ccc2cc(CN(C(=O)c3ccncc3)C(C)C)c(=O)[nH]c2c1	inactive: 2.78%
CCCC(=O)OCC(=O)Nc1cc([N+](=O)[O-])ccc1OC	inactive: 1.08%
Cc1nn(CC(=O)NCc2cccnc2)c(C)c1[N+](=O)[O-]	inactive: -5.58%
CCCCn1c(-c2ccc(OC(F)F)cc2)nc2c1c(=O)[nH]c(=O)n2CC(C)C	inactive: 8.08%
O=[N+]([O-])c1cccc(/C=N/NS(=O)(=O)c2ccccc2)c1	inactive: 0.297%
CC(=O)Nc1ccc(-c2cc(N)n(-c3ccccc3)n2)cc1	inactive: -1.44%
O=[N+]([O-])c1ccc(-c2nc(=S)c3c(o2)CCCC3)cc1	inactive: 19.2%
CCC(C)(C)NC(=O)C(c1cccc(OC)c1OC)N(Cc1ccc(OC)cc1)C(=O)CCC(=O)Nc1cc(C)on1 (stereo not given)	inactive: 12.1%
Cc1ccc(S(=O)(=O)NC(=O)NCCCN2CCOCC2)cc1	inactive: -13.7%
CCCn1c(SCC(=O)c2ccc(CC)cc2)n[nH]c1=O	inactive: 14.2%
CCn1c(=O)c(C(=O)NNC(=O)c2ccccc2Cl)c(O)c2ccccc21	inactive: -58.8%
CC(C)c1nc2sc3c(=O)n(N)cnc3c2c2c1COC(C)(C)C2	inactive: 6.51%
COc1ccc(C(=O)NC(=S)Nc2ccc3c4c(cccc24)CC3)cc1OC	inactive: -16.4%
CC1CCC(NC(=O)CC(NC(N)=O)c2ccccc2Cl)CC1 (stereo not given)	inactive: -2.61%
COc1cc(OC)c(S(=O)(=O)Nc2ccccc2N2CCOCC2)cc1NC(C)=O	inactive: 1.56%
CC(=O)Nc1ccc(S(=O)(=O)N2CCNC(=O)C2)cc1	inactive: 2.64%

Compound	growth rescue (activation)
Cc1ccc(C)c(CN2C(=O)c3ccccc3S(=O)(=O)c3ccc(C(=O)N4CCCCC4)cc32)c1	inactive: 15.1%
CC(C)Cn1c(N)c(C(=O)COC(=O)CCc2nc3ccccc3s2)c(=O)n(C)c1=O	inactive: 18.9%
Cc1ccc(S(=O)(=O)NCC(C)NC(=O)CN2CCOCC2)cc1 (stereo not given)	inactive: 10.5%
CCCn1c(SCC(=O)N2N=C3/C(=C/c4ccc(OC)cc4)CCCC3C2c2ccc(OC)cc2)n[nH]c1=O (stereo not given)	inactive: 19.2%
Cc1cccn2cc(-c3ccc(F)cc3)cc12	inactive: 1.75%
Cc1ccc2c(C)c(C(=O)Nc3c(C)n(C)n(-c4ccccc4)c3=O)oc2c1	inactive: -5.29%
COc1ccccc1C(=O)Nc1ccc2c(c1)CCCN2C(=O)c1cccs1	inactive: 14.2%
COc1cc(S(=O)(=O)Nc2ccc3c(c2)C(=O)N(C)C3=O)ccc1NC(C)=O	inactive: -8.14%
COc1ccc(CNC(=O)C(C)Sc2ccc(C)cc2)cc1 (stereo not given)	inactive: 29.7%
CCc1ccc(OCC(=O)N/N=C(\C)c2ccc(O)cc2O)cc1	inactive: 8.76%
COc1cc(C2CC(=O)Oc3c2c(=O)n(C)c2ccccc32)cc(OC)c1OC (stereo not given)	inactive: -9.37%
COC(=O)c1ccc(-c2nc3ccccc3[nH]2)cc1	inactive: -42.6%
CC(=O)c1ccc(/C=C/c2nc3ccccc3n2C)o1	inactive: -8.78%
O=C1CCCCC1C(=O)c1ccccc1 (stereo not given)	inactive: 7.64%
Cc1ccccc1N(C(=O)Cc1c[nH]c2ccccc12)C(C(=O)NC1CCCCC1)c1ccco1 (stereo not given)	inactive: 5.33%
Cc1ccc(OCC(=O)Nc2ccc3oc(=O)ccc3c2)cc1	inactive: 22.6%
CCc1nc2c(OCc3ccc(Cl)cc3)cccn2c1N(C)C(=O)c1ccc2c(c1)OCO2	inactive: 6.36%
CC(=O)N(CCCN(C)C)Cc1ccccn1	inactive: -2.04%
O=C(NCc1cccs1)c1ccc2ccccc2n1	inactive: 23%
CCC(C)[C@H](NC(=O)NCCC1=CCCCC1)C(=O)OC (stereo not given in full)	inactive: 4.18%
CC(=O)c1cc2c(cc1N/C(=N/S(=O)(=O)c1ccc(Br)cc1)c1ccccc1)OCO2	inactive: 12.3%
COc1ccc(N(C(=O)c2ccco2)C(C(=O)NC2CCCC2)c2ccc(N3CCOCC3)cc2)c(OC)c1 (stereo not given)	inactive: 9.04%
CC(C)c1ccc(Nc2c([N+](=O)[O-])c(=O)n(C)c3ccccc23)cc1	inactive: 9.28%
COc1ccc(C(=O)C2CCCN(C(=O)c3cccnc3SC)C2)c(C)c1 (stereo not given)	inactive: 19.4%
O=C(O)Cn1c(=O)c2c3c(sc2n(Cc2ccc(Cl)cc2Cl)c1=O)CCCC3	inactive: 6.69%
O=C(COC(=O)/C=C/c1ccccc1)NC(=O)NC1CCCCC1	inactive: 16.3%
Cc1ccc2nc(C)cc(Nc3ccc([N+](=O)[O-])cc3)c2c1	inactive: -15%

Compound	growth rescue (activation)
COc1ccc(C2N(C(C)=O)CCN2S(=O)(=O)c2ccc(C)cc2)cc1 (stereo not given)	inactive: -4.09%
COC(=O)c1cccc(Nc2nc(-c3cccnc3)nc3ccccc23)c1	inactive: 4.43%
COC(=O)c1cc2oc3ccccc3c2n1Cc1nc(-c2ccccc2C)oc1C	inactive: 0.0862%
Cc1ccc(-c2csc3nc(C)n(-n4cccc4)c(=O)c23)o1	inactive: -3.57%
COc1ccc(/C=N/OCC(=O)NCc2cccs2)c(OC)c1	inactive: -1.07%
CCc1ccc(NC(=O)C(C)OC(=O)CC(NC(C)=O)c2ccccc2)cc1 (stereo not given)	inactive: -11.8%
COC(=O)c1[nH]c2ccccc2c1NC(=O)CN1CCN(C(=O)c2ccco2)CC1	inactive: -2.55%
O=[N+]([O-])c1cnn(-c2nc(-c3ccccc3)cc(C(F)(F)F)n2)c1	inactive: -8.04%
CN(Cc1nccn1C)C(=O)CC1C(=O)NCCN1Cc1ccc(F)cc1Cl (stereo not given)	inactive: 13.7%
COc1cc(OC)cc(C(=O)OCC(=O)N2CCCC2)c1	inactive: -15.9%
CCOC(=O)C1(C)CCCCCN1C(=O)c1ccc(SC(F)(F)F)cc1 (stereo not given)	inactive: -9.91%
O=C(CN1CCC(NC(=O)C2CC2)CC1)Nc1cccc(F)c1	inactive: 11.9%
O=C(Nc1cccnc1Cl)c1cc(-c2cccc(Cl)c2)on1	inactive: -15%
O=C(O)c1ccc(/C=N/N2CCN(Cc3ccc(Cl)cc3)CC2)cc1	inactive: 10.1%
CCc1nc2ccccc2c(C(=O)Oc2ccc(C(=O)OC)cc2)c1C	inactive: -1.36%
CCN(C(=O)CN1CCOCC1)c1c(N)n(Cc2ccccc2)c(=O)[nH]c1=O	inactive: -0.12%
C=CCNS(=O)(=O)c1ccc(N2C(=O)c3ccccc3C2=O)cc1	inactive: 1.84%
O=C(CNS(=O)(=O)c1ccccc1)OCC(=O)c1ccc(Br)cc1	inactive: 0.682%
c1ccc(Oc2nc(-c3ccccn3)nc3ccccc23)cc1	inactive: 6.45%
Cc1nc2cc(NC(=O)C3COc4ccccc4O3)ccc2s1 (stereo not given)	inactive: 24.8%
CCN(CC(=O)NCc1ccc(F)cc1)C(=O)/C=C/c1ccc(OC)cc1	inactive: 2.63%
CN(C)CCNC(=O)/C(=C/c1ccc(-c2ccc(Cl)cc2Cl)o1)NC(=O)c1ccccc1	inactive: 1.39%
CC(=NNC(=O)c1ccc2nc[nH]c2c1)c1ccc(Br)cc1	inactive: 16%
CCOC(=O)C(C)NC(=O)CCc1nnc2ccc(N3CCCCC3)nn12 (stereo not given)	inactive: -2.41%
Oc1c(CN2CCCCC2)cc(COCc2ccccc2)c2cccnc12	inactive: 19.4%
O=C(NCCCNC(=O)c1ccc(Cl)cc1Cl)c1ccco1	inactive: 10.9%
CCOC(=O)C1(Cc2ccc(Cl)cc2)CCN(Cc2nccn2CC)CC1	inactive: -2.34%

Compound	growth rescue (activation)
CCc1ccc(NC(=O)C(=O)NNC(=O)c2cccc(OC)c2)cc1	inactive: 12.6%
CSCC[C@H](NC(=O)C(C)Oc1ccc(Cl)cc1)c1nc2ccccc2[nH]1 (stereo not given in full)	inactive: 1.23%
O=C(Nc1ccc([N+](=O)[O-])cc1)c1ccc(S(=O)(=O)N2CCCC2)cc1	inactive: 5.84%
Cc1ccc(CN(C)CC(=O)Nc2cccc([N+](=O)[O-])c2)o1	inactive: -11.7%
Cc1ccc(-c2nc(C)sc2CC(=O)OCC(=O)Nc2c(F)cccc2F)cc1	inactive: 12.4%
Cn1nc(C(C)(C)C)cc1NC(=O)C1(C)CCN1C(=O)c1ccccc1CCc1ccccc1 (stereo not given)	inactive: 23.9%
CC(OC(=O)C(C)N1C(=O)C2C3C=CC(C4CC34)C2C1=O)C(=O)c1ccccc1 (stereo not given)	inactive: 28.8%
O=C(Nc1ccc(O)cc1C(=O)O)c1cccs1	inactive: -10.8%
CC(NC(=O)C1c2ccccc2Oc2ccccc21)C1CCCO1 (stereo not given)	inactive: 8.85%
COc1cccc(OC)c1OCCCCn1cnc2ccccc2c1=O	inactive: 18.2%
CC(C)NC(=O)C1Cc2c(-c3ccccc3Oc3ccccc3)ccnc2O1 (stereo not given)	inactive: 6.4%
C=CCN(c1ccccc1OC)S(=O)(=O)c1cccc(C(=O)OC2CCOC2=O)c1 (stereo not given)	inactive: 5.98%
Cc1cc(C(=O)Nn2c(C)nc3ccccc3c2=O)ccc1[N+](=O)[O-]	inactive: 7.89%
Nn1cc(-c2ccccc2)nc1SCC(=O)Nc1ccc2c(c1)OCO2	inactive: 28.1%
Cc1sc2ncnc(NCc3cccnc3)c2c1C	inactive: 6.35%
CCCCOC(=O)c1ccc(NC(=O)c2c(Cl)ccc(Cl)c2OC)cc1	inactive: 25.4%
Cc1ccc(C)c(OC2=NS(=O)(=O)c3ccccc32)c1	inactive: -1.16%
COc1ccc(NC(=O)COC(=O)CC2CCCC2)cc1	inactive: -1.98%
CC(CCc1ccccc1)NC(=O)CCc1cn(C)c2ccccc12 (stereo not given)	inactive: 8.62%
COc1ccc(CNC(=O)COC(=O)/C=C/c2cccc(Cl)c2)cc1	inactive: 14.9%
O=Cc1sc(=O)n(Cc2cccc(C(=O)O)c2)c1Cl	inactive: -4.15%
O=C(CCn1nnc2ccccc21)OCC(=O)c1ccc([N+](=O)[O-])cc1	inactive: 1.97%
O=C(COc1ccc(Br)cc1CNC1CCCC1)Nc1ccccc1	inactive: -3.93%
COc1ccc(N2C(=O)CC(Sc3nnnn3-c3ccc(F)cc3)C2=O)cc1 (stereo not given)	inactive: 20.5%

Reference: PubChem BioAssay AID1347073 (National Center for Advancing Translational Sciences (NCATS), 2019)
